Assay results as given in PubChem BioAssay AID686971 (National Center for Advancing Translational Sciences (NCATS), 2013).
The campaign covered roughly 360,000 compounds. About 7,500 (2.1%) were called active. The shares of active, inactive and inconclusive entries below differ from those in the screen. Calls come from the whole dose curve; as a rule, active = well fitted cell-killing curve with a large enough effect; inconclusive = small, poorly fitted or top-dose-only effect, or effect the other way, or another doubt; inactive = no such curve, though single readings can be large or run the other way. Potencies of inconclusive entries are left out as doubtful fits.

Experiment: qHTS for induction of synthetic lethality in tumor cells producing 2HG: qHTS for the HT-1080-IDH1KD cell line;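 for activity, negative = toxicity: 0% = DMSO wells and -100% = cell-free medium wells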
Settings: HT-1080 IDH1 knockdown viability, ATP luminescence, 48 h; activity, negative = toxicity: at 46.1 µM (top of the series) unless noted
How it was run: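 Cytotoxicity counter-line: IDH1KD HT-1080, 48 h, CellTiter-Glo. Curves classed by r2, magnitude and activity.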
Potency is the fitted concentration of half-maximal effect; tags give direction and shape of the fitted curve.

| Compound | Potency | activity, negative = toxicity |
| --- | --- | --- |
| NC(=O)CC(NC(=O)Cc1ccc(Br)cc1)c1ccc(NC2CC3CCC2C3)c([N+](=O)[O-])c1 (configuration not stated) | inconclusive [cytotoxic, single point] |  |
| CCOC(=O)C1CCCN(C(=O)c2ccc(S(=O)(=O)NCc3ccco3)cc2)C1 (configuration not stated) |  | inactive: 3.02% |
| COc1ccc(-c2cc(-c3ccccc3)nc(NN)n2)cc1OC | inconclusive [cytotoxic, single point] |  |
| COc1ccc2[nH]c(-c3cccc(F)c3)cc(=O)c2c1 | active: 0.517 µM |  |
| COc1ccc(NC(=O)CN2C(=O)/C(=C3\SC(=S)N(C4CCS(=O)(=O)C4)C3=O)c3ccccc32)cc1 (configuration not stated) |  | inconclusive: -7.71% [cytotoxic] |
| COc1ccc(NC(=O)CN(C)C(=O)c2ccccc2Sc2ncnc3sc(C)c(C)c23)cc1 |  | inactive: -7.33% |
| O=C(Nc1ccc2c(c1)OCCO2)C1c2ccccc2OCC(=O)N1CCc1ccccc1 (configuration not stated) |  | inactive: 1.58% |
| O=C(CC1NC(=S)NC1=O)c1ccc(Cl)cc1 (configuration not stated) |  | inactive: 6.7% |
| COc1cc(NC(C)CCCN)c2ncccc2c1Oc1ccccc1 (configuration not stated) | inconclusive [cytotoxic, single point] |  |
| CCCCNC(=O)C1(C)CCCCN1Cc1ccc2ccccc2c1 (configuration not stated) | inconclusive [cytotoxic, single point] |  |
| Cc1ccc(-c2nc3ccc(Br)cn3c2Cc2cccc(F)c2)cc1 | inconclusive [cytotoxic, single point] |  |
| O=C(O)c1ccc(NC(=O)c2ccc(COc3ccc(Cl)cc3)o2)cc1 | inconclusive [cytotoxic, single point] |  |
| Cc1cc(C)cc(Cn2c3ccc(NC(=O)NCc4ccc(F)cc4)cc3c(=O)n2C)c1 |  | inactive: -2.99% |
| CCOC(=O)C1=C(C)NC(=O)NC1/C(C)=C/c1ccccc1 (configuration not stated) | inconclusive [cytotoxic, single point] |  |
| N#C/C(=C/c1ccc(N2CCCCCC2)o1)c1ccc(Cl)cc1 | active: 2.24 µM |  |
| Cc1ccc(NS(=O)(=O)c2ccc(NC(=O)c3ccc(-c4ccccc4)cc3)cc2)c(C)c1 | inconclusive [cytotoxic, single point] |  |
| COc1cccc(Cn2c(C(C)n3c(-c4cnccn4)nc4ccccc43)nc3ccccc32)c1 (configuration not stated) | active: 14.6 µM |  |
| N#C/C(=C\c1ccc(F)cc1)c1nc(-c2ccco2)cs1 | inconclusive [cytotoxic, single point] |  |
| O=C(C[C@@H]1C/C=C\CCCC(=O)OC[C@@H]2CCCN2C1=O)N[C@@H](CO)Cc1ccccc1 |  | inactive: 9.4% |
| COc1cc(/C=C/c2cc[n+](C)cc2)ccc1OCC(=O)Nc1ccc(Cl)c(Cl)c1 | active: 23.1 µM |  |
| O=C(N/N=C/c1ccccc1F)c1cccc2ccccc12 |  | inactive: 5.7% |
| NS(=O)(=O)c1ccc(CCNC(=O)c2ccc(C#CC3(O)CCCCC3)cc2)cc1 | inconclusive [cytotoxic, single point] |  |
| Oc1cccc(C(O)CNCc2ccc(-c3ccccc3)cc2)c1 (configuration not stated) | active: 20.6 µM |  |
| CCOC(=O)C1=C(N)Oc2cc(O)ccc2C1c1ccc(C)cc1 (configuration not stated) | active: 20.6 µM |  |
| CC1CC(C)(C)Nc2ccc(OC(=O)c3ccco3)cc21 (configuration not stated) | active: 23.1 µM |  |
| CN1CCN(c2ccc([N+](=O)[O-])cc2C(=O)c2ccc(Br)cc2)CC1 | active: 14.6 µM |  |

| Compound | Potency | activity, negative = toxicity |
| --- | --- | --- |
| CC1(c2ccc(Cl)cc2)NC(=O)N(CC(=O)NCc2ccc(F)cc2)C1=O (configuration not stated) |  | inactive: -11% |
| COC(=O)C1=CN(C(C)C)C=C(C(=O)OC)C1c1cc2c(cc1Br)OCO2 | inconclusive [cytotoxic, single point] |  |
| O=[N+]([O-])c1ccc(N=Nc2ncc[nH]2)cc1 | active: 6.51 µM |  |
| CC(C)N(C(=S)Nc1cccc(S(=O)(=O)N(C)C)c1)c1ccccc1 |  | inactive: 3.51% |
| COc1cc2c(cc1OC)C(C)N(C(=O)c1cc(C)on1)CC2 (configuration not stated) | active: 1.46 µM |  |
| CCOc1ccccc1CN1CCN(CCCn2cccn2)CC1CCO (configuration not stated) |  | inactive: 1.82% |
| COC(=O)CNC(=O)C1Cc2ccccc2CN1S(=O)(=O)c1cccs1 (configuration not stated) |  | inactive: 4.78% |
| O=C(C1CC1)N1CCc2cc(Br)cc(S(=O)(=O)NCCCN3CCCC3)c21 |  | inactive: -2.57% |
| Clc1cccc(CN2CCC(Cc3ccccc3)CC2)c1 | inconclusive [cytotoxic, partial curve, poor fit] |  |
| Cc1ccc(NC(=O)CN2CCN(C(=O)C3CCCO3)CC2)c(C)c1 (configuration not stated) | inconclusive [rising, single point] |  |
| Cc1ccc(S[C@@H](CCN2CC[C@H](C(C)(C)C)CCC2=O)c2ccccc2)cc1 | inconclusive [cytotoxic, single point] |  |
| CSc1nnc(-c2cc(Br)ccc2N=Cc2c(C)[nH]n(-c3ccccc3)c2=O)c(=O)[nH]1 |  | inactive: -14.3% |
| Cn1c(=S)c2[nH]c(SCCC(C)(C)C)nc2n(C)c1=O |  | inactive: -21.7% |
| O=C(CC1Sc2ccccc2NC1=O)NCc1ccc(Cl)cc1 (configuration not stated) | inconclusive [cytotoxic, single point] |  |
| COc1ccc(Cn2c(-c3ccc(OC)c(O)c3)nc3ccccc32)cc1O | inconclusive [cytotoxic, single point] |  |
| Cn1c(/C=N/NC(=O)c2ccccc2)nc2ccccc21 | inconclusive [cytotoxic, single point] |  |
| CCN(CC)C(=O)CSc1nc(O)cc(=O)n1-c1ccccc1OC |  | inactive: 0.0155% |
| OC(CNCC1CCCO1)Cn1c2ccccc2c2ccccc21 (configuration not stated) | inconclusive [cytotoxic, partial curve] |  |
| CCOC(=O)CC(=O)CSc1nc2ccc(C)cc2cc1C#N | active: 7.08 µM |  |
| O=C(Nc1nc2ccccc2[nH]1)c1ccc(F)cc1 |  | inconclusive: -60.4% |
| CCN(c1ccccc1)S(=O)(=O)c1ccc(NC(=O)c2nc(S(C)(=O)=O)ncc2Cl)cc1 | active: 16.4 µM |  |
| CCOC(=O)c1cnc2ccc(OCC)cc2c1NCc1ccccc1OC | inconclusive [cytotoxic, single point] |  |
| CCOC(=O)c1cnc(-n2nc(C)cc2C)nc1N(CC)CC | active: 1.58 µM |  |
| CSc1nnc(NC(=O)c2nc(S(=O)(=O)Cc3cccc(C)c3)ncc2Cl)s1 | active: 20.6 µM |  |
| Cc1ccccc1-c1nc(-c2ccccn2)no1 | active: 20.6 µM |  |
| COc1cccc(NC(=O)Cn2nnc(-c3ccccc3N)n2)c1 |  | inactive: 1.21% [at 9.24 µM] |

| Compound | Potency | activity, negative = toxicity |
| --- | --- | --- |
| Cc1c(/C=N/Nc2nc3ccccc3[nH]2)c2ccccc2n1C | inconclusive [cytotoxic, single point] |  |
| CS(=O)(=O)N1CCC(C(=O)Nc2ccc3c(c2)OCO3)CC1 |  | inactive: 4.83% |
| CC(C)N1CCc2c(sc(NC(=O)c3ccc4ccccc4c3)c2C(N)=O)C1 | inconclusive [cytotoxic, single point] |  |
| Cn1c(=N)n(CC(=O)c2ccccc2)c2ccccc21 |  | inactive: -17.3% |
| O=C(CNS(=O)(=O)c1ccc2ccccc2c1)OCc1csc(-c2ccccc2)n1 |  | inactive: 11.8% |
| COc1ccc(CCC(=O)NCCS(=O)(=O)N2CCN(c3ccccc3OC)CC2)cc1 |  | inactive: -2.21% |
| CCN=c1sc(C(=O)NCCc2ccccc2)cc(=O)n1CC | inconclusive [cytotoxic, single point] |  |
| Cc1ccc(-c2cnc3c(Nc4cccc(OC(F)(F)C(F)F)c4)nccn23)cc1 | inconclusive [cytotoxic, single point] |  |
| CCn1cc(C(=S)N2CCC(C(N)=O)CC2)c2ccccc21 |  | inactive: 3.42% |
| CCCNC(=O)C1(C)CCCN(Cc2ccc(C)cc2)C1 (configuration not stated) |  | inactive: 2.43% |
| O=c1ccc(-c2ccccc2)nn1Cc1ccc(F)cc1Cl | inconclusive [cytotoxic, single point] |  |
| CCN1CN=C(NS(=O)(=O)c2ccc(C)cc2)NC1 |  | inconclusive: 30.2% |
| CCCCOC(=O)/C=C\C(=O)NC(N)=O | inconclusive [cytotoxic, single point] |  |
| COc1cccc(OCCSc2nc(N)cc(N)n2)c1 | inconclusive [cytotoxic, partial curve] |  |
| CC(=O)Nc1cccc(-c2ccnc3c2CC(C)(C(=O)NCc2ccccc2)O3)c1 (configuration not stated) | active: 0.651 µM |  |
| Cc1ccc(S(=O)(=O)c2c(C)nn(C(C)(C)C)c2OC(=O)c2ccco2)cc1 | inconclusive [cytotoxic, single point] |  |
| COc1ccc(S(=O)(=O)Nc2cccc(-c3ccc4nncn4n3)c2)cc1 | active: 10.3 µM |  |
| COc1ccc2nc(/N=C/c3c(C)[nH]n(-c4ccc(C)cc4)c3=O)sc2c1 | inconclusive [cytotoxic, single point] |  |
| CCN(CC)C(=O)Cn1cc(C(=O)C(=O)N2CCN(c3ccc(OC)cc3)CC2)c2ccccc21 |  | inactive: 2.51% |
| Clc1ccc(CN2C3=NCCCN3c3ccccc32)cc1Cl | inconclusive [cytotoxic, single point] |  |
| CCn1ccnc1CN(C)Cc1cn(-c2ccc(C)cc2)nc1-c1cccc(C)c1 | active: 25.9 µM |  |
| O=C(c1ccc2c(c1)OCCO2)C1CCN(C(=O)c2ccc(F)c(F)c2)CC1 | inconclusive [cytotoxic, single point] |  |
| O=C(Nc1cccc(CNCCc2c[nH]c3ccccc23)c1)c1ccccc1Cl | inconclusive [cytotoxic, partial curve, poor fit] |  |
| OC(c1ccc(F)c(F)c1)c1ncc(-c2ccc(Cl)cc2)[nH]1 (configuration not stated) | inconclusive [cytotoxic, partial curve] |  |
| CC(=O)Nc1sc(N/N=C\c2ccccc2F)nc1-c1cccs1 |  | inactive: 2.38% |
